IC50 is the fitted dose that halves viability relative to control wells, and lower means more sensitive; a limit (>, <) means that the fit lies beyond the doses tested. AUC is the area under the same curve over the 256-fold range up to the top dose, as a fraction; it is 1 without any effect and falls as sensitivity rises. For part of these data: Where the top dose is marked as inferred, it was calculated from the reported fits.
Tests used:
Assay in all cases: Viability of human cancer cell lines after 72 h of drug (GDSC screen)
PF-4708671 = compound: CCc1cncnc1N1CCN(Cc2nc3ccc(C(F)(F)F)cc3[nH]2)CC1 [PF-4708671]; conditions: top dose 10 µM; top dose inferred
Protocol: (§1)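 Human cancer cell lines in 384-well plates, medium with 10% serum, drug for 72 h over a 256-fold dose range (nine 2-fold or five 4-fold steps up to the top dose). Adherent lines were fixed and stained with the nucleic acid dye Syto60, suspension lines read with resazurin; signal relative to control wells, capped at 0 and 100%. One two-parameter sigmoid per drug and line, fitted in a mixed model over all curves with the slope shared within a line.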

HG-6-64-1 = compound: CCN1CCN(Cc2ccc(NC(=O)c3ccc(C)c(/C=C/c4cnc5[nH]ccc5c4OC)c3)cc2C(F)(F)F)CC1 [HG-6-64-1]; conditions: top dose 5.12 µM; top dose inferred
Protocol: as §1

Trametinib = compound: CC(=O)Nc1cccc(-n2c(=O)n(C3CC3)c(=O)c3c(Nc4ccc(I)cc4F)n(C)c(=O)c(C)c32)c1 [Trametinib]; conditions: top dose 1 µM
Protocol: as §1

I-BET-762 = compound: CCNC(=O)C[C@@H]1N=C(c2ccc(Cl)cc2)c2cc(OC)ccc2-n2c(C)nnc21 [I-BET-762]; conditions: top dose 20 µM; top dose inferred
Protocol: as §1

AV-951 = compound: COc1cc2nccc(Oc3ccc(NC(=O)Nc4cc(C)on4)c(Cl)c3)c2cc1OC [AV-951]; conditions: top dose 0.128 µM; top dose inferred
Protocol: as §1

KIN001-244 = compound: O=C(NC(COc1ccc2[nH]c(=O)[nH]c2c1)c1ccccc1)c1cccn(Cc2ccc(F)c(F)c2)c1=O [KIN001-244]; conditions: top dose 20 µM; top dose inferred
Protocol: as §1

Row | Cell Line | AUC (PF-4708671) | IC50 (PF-4708671) [µM] | AUC (HG-6-64-1) | IC50 (HG-6-64-1) [µM] | AUC (Trametinib) | IC50 (Trametinib) [µM] | AUC (I-BET-762) | IC50 (I-BET-762) [µM] | AUC (AV-951) | IC50 (AV-951) [µM] | AUC (KIN001-244) | IC50 (KIN001-244) [µM]
1 | SW1710 (bladder, adherent) | 0.964 | > 10 | 0.49 | 0.3 | 0.447 | 0.0445 | 0.954 | > 20 | 0.986 | > 0.128 | 0.778 | 8.33
2 | SW1783 (glioma, adherent) | 0.971 | > 10 | 0.732 | 1.35 | 0.972 | > 1 | 0.991 | > 20 | 0.986 | > 0.128 | 0.955 | > 20
3 | SW1990 (pancreas, adherent) | 0.985 | > 10 | 0.865 | > 5.12 | 0.637 | 0.16 | 0.985 | > 20 | 0.979 | > 0.128 | 0.953 | > 20
4 | Saos-2 (osteosarcoma, adherent) | 0.967 | > 10 | 0.681 | 1.28 | 0.946 | > 1 | 0.981 | > 20 | 0.981 | > 0.128 | 0.981 | > 20
5 | T84 (large intestine, adherent) | 0.938 | > 10 | 0.945 | > 5.12 | 0.77 | 0.385 | 0.987 | > 20 | 0.985 | > 0.128 | 0.924 | > 20
6 | T98G (glioma, adherent) | 0.974 | > 10 | 0.658 | 0.844 | 0.921 | > 1 | 0.985 | > 20 | 0.984 | > 0.128 | 0.907 | > 20
7 | T-T (oesophagus, adherent) | 0.965 | > 10 | 0.593 | 0.575 | 0.824 | 0.592 | 0.959 | > 20 | 0.987 | > 0.128 | 0.853 | 15.5
8 | TCCSUP (bladder, adherent) | 0.949 | > 10 | 0.489 | 0.298 | 0.868 | > 1 | 0.984 | > 20 | 0.983 | > 0.128 | 0.939 | > 20
9 | TE-11 (oesophagus, adherent) | 0.983 | > 10 | 0.904 | > 5.12 | 0.895 | > 1 | 0.988 | > 20 | 0.99 | > 0.128 | 0.966 | > 20
10 | TGBC11TKB (stomach, adherent) | 0.943 | > 10 | 0.992 | > 5.12 | 0.8 | 0.418 | 0.979 | > 20 | 0.991 | > 0.128 | 0.909 | > 20
11 | TGBC24TKB (biliary tract, adherent) | 0.984 | > 10 | 0.841 | 3.24 | 0.744 | 0.296 | 0.928 | > 20 | 0.99 | > 0.128 | 0.963 | > 20
12 | TMK-1 (stomach, adherent) | 0.976 | > 10 | 0.849 | 4.18 | 0.57 | 0.098 | 0.984 | > 20 | 0.986 | > 0.128 | 0.949 | > 20
13 | TOV-21G (ovary, adherent) | 0.935 | > 10 | 0.794 | 2.59 | 0.577 | 0.103 | 0.975 | > 20 | 0.937 | > 0.128 | 0.985 | > 20
14 | TOV-112D (ovary, adherent) | 0.908 | > 10 | 0.564 | 0.478 | 0.744 | 0.315 | 0.785 | 8.65 | 0.978 | > 0.128 | 0.87 | 18.9
15 | TT2609-C02 (thyroid, adherent) | 0.982 | > 10 | 0.364 | 0.131 | 0.83 | 0.683 | 0.883 | > 20 | 0.984 | > 0.128 | 0.966 | > 20
16 | TT (thyroid, adherent) | 0.951 | > 10 | 0.867 | > 5.12 | 0.885 | > 1 | 0.98 | > 20 | 0.982 | > 0.128 | 0.965 | > 20
17 | TYK-nu (ovary, adherent) | 0.921 | > 10 | 0.935 | > 5.12 | 0.287 | 0.0149 | 0.87 | > 20 | 0.975 | > 0.128 | 0.879 | > 20
18 | U031 (kidney, adherent) | 0.923 | > 10 | 0.766 | 1.95 | 0.466 | 0.0502 | 0.943 | > 20 | 0.981 | > 0.128 | 0.974 | > 20
19 | U251 (glioma, adherent) | 0.941 | > 10 | 0.728 | 1.37 | 0.688 | 0.204 | 0.908 | > 20 | 0.986 | > 0.128 | 0.749 | 6.22
20 | U-118-MG (glioma, adherent) | 0.968 | > 10 | 0.916 | > 5.12 | 0.779 | 0.475 | 0.968 | > 20 | 0.97 | > 0.128 | 0.87 | > 20
21 | UACC-62 (melanoma, adherent) | 0.973 | > 10 | 0.694 | 1.11 | 0.105 | < 0.00391 | 0.987 | > 20 | 0.988 | > 0.128 | 0.912 | > 20
22 | UACC-893 (breast, adherent) | 0.749 | 4.24 | 0.981 | > 5.12 | 0.705 | 0.29 | 0.959 | > 20 | 0.981 | > 0.128 | 0.888 | > 20

From the supplement of paper PMC4967469
